{"source": "the supplement of paper PMC12340641", "note": "Whole data set: some 1,000 compounds, median “relative growth in counter assay (no AraC = 100%, AraC + DMSO = 0%)” near -1.1, cut for the highest 2% near 20. This is one part of the list."}
{"tested_on": "HEK293FT dCK*-only", "assay": "relative growth in counter assay (no AraC = 100%, AraC + DMSO = 0%); higher = more growth rescue independent of IKZF1", "conditions": "compound concentration: 5 uM; AraC concentration: 0.3 uM; overnight pretreatment + 4 days AraC", "procedure": "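Growth recovery screen of the molecular-glue-like (Specs) library. HEK293FT cells expressing a dCK*-IKZF1 fusion (primary) or dCK* alone (counter) were pretreated overnight with compound at 5 uM, then given 0.3 uM AraC for 4 days. Hoechst nuclei were counted by imaging. Primary: normalised to pomalidomide (100%) and DMSO (0%), mean of 2 replicates. Counter: normalised to no-AraC (100%) and AraC+DMSO (0%), single replicate.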", "units": {"relative growth in counter assay": "%"}}
{"smiles": "CCC(C)(C)C(=O)Nc1ccc(S(=O)(=O)Nc2ncccn2)cc1", "relative growth in counter assay": -5.73}
{"smiles": "COc1ccccc1CCC(=O)N1CCOC(c2cccc(Nc3ncc(C)s3)n2)C1", "note": "(stereo not given)", "relative growth in counter assay": 8.09}
{"smiles": "O=C(C1CCCCC1)N1CCOC(c2cccc(Nc3ncc(Cc4ccc(F)cc4)s3)n2)C1", "note": "(stereo not given)", "relative growth in counter assay": -1.26}
{"smiles": "Cc1cnc(Nc2cccc(C3CCN(C(=O)C4CCCC4)CC3)n2)s1", "relative growth in counter assay": -18.7}
{"smiles": "COc1ccc(OCC(=O)Nc2ccc(S(=O)(=O)Nc3ccccn3)cc2)cc1", "relative growth in counter assay": 4.59}
{"smiles": "O=C(C1CCCCC1)N1CCC(c2cccc(Nc3ncc(Cc4ccccc4)s3)n2)CC1", "relative growth in counter assay": -8.2}
{"smiles": "Cc1cc(C)nc(NS(=O)(=O)c2ccc(NC(=O)c3ccc(C)c(C)c3)cc2)n1", "relative growth in counter assay": 3.76}
{"smiles": "CCCc1cnc(Nc2cccc(C3CCN(C(=O)[C@@H]4CCCN4C(=O)OC(C)(C)C)CC3)n2)s1", "relative growth in counter assay": -22.3}
{"smiles": "Cc1cc(C)nc(NS(=O)(=O)c2ccc(NC(=O)COc3c(C)cccc3C)cc2)n1", "relative growth in counter assay": -15.3}
{"smiles": "Cc1cc(C)nc(NS(=O)(=O)c2ccc(NCc3cc(Cl)ccc3O)cc2)n1", "relative growth in counter assay": 3.82}
{"smiles": "O=C(c1[nH]nc2c1CCCCC2)N1CCCC1c1cccc(Nc2nccs2)n1", "note": "(stereo not given)", "relative growth in counter assay": -22.1}
{"smiles": "COC(=O)C(c1cccc(Nc2ncc(C)s2)n1)C1CCN(C(=O)[C@H](CC(C)C)NC(=O)OC(C)(C)C)CC1", "note": "(stereo not given in full)", "relative growth in counter assay": -2.35}
{"smiles": "CNC(=O)c1cnc(Nc2cccc(C3CCN(C(=O)C4CCCCC4)CC3)n2)s1", "relative growth in counter assay": -12.1}
{"smiles": "COc1cc(NS(=O)(=O)c2ccc(NC(=O)c3ccc([N+](=O)[O-])cc3)cc2)nc(OC)n1", "relative growth in counter assay": 4.43}
{"smiles": "O=C(CSc1nnc2c(n1)[nH]c1ccc(F)cc12)Nc1cccc(F)c1", "relative growth in counter assay": 5.51}
{"smiles": "COc1cc(OC)cc(C(=O)Nc2ccc(S(=O)(=O)Nc3ncccn3)cc2)c1", "relative growth in counter assay": -0.19}
{"smiles": "Cc1cnc(Nc2cccc(C3CN(C(=O)C4C5C6CCC(C6)C45)CCO3)n2)s1", "note": "(stereo not given)", "relative growth in counter assay": -14.3}
{"smiles": "O=C(C1CNCCO1)N1CCC(c2cccc(Nc3ncc(-c4ccccc4)s3)n2)CC1", "note": "(stereo not given)", "relative growth in counter assay": 1.14}
{"smiles": "CC(C)CC(=O)N1CCCC1c1csc(Nc2ccccn2)n1", "note": "(stereo not given)", "relative growth in counter assay": -4}
{"smiles": "C[C@@]1(O)CNCC[C@H]1n1cnc2c(N)nc(N)nc21", "relative growth in counter assay": -26.7}
{"smiles": "COCC(=O)N1CCCC(Cc2ccc(Nc3ncc(-c4ccc(F)cc4)s3)nc2)C1", "note": "(stereo not given)", "relative growth in counter assay": -8.41}
{"smiles": "Cc1cc(NS(=O)(=O)c2ccc(NC(=O)c3oc4ccccc4c3C)cc2)nc(C)n1", "relative growth in counter assay": 2.64}
{"smiles": "Cc1cnc(NC(=O)CN2CCC(c3cccc(Nc4ncc(C)s4)n3)CC2)s1", "relative growth in counter assay": -16.5}
{"smiles": "Cc1cc(OCC(=O)Nc2ccc(S(=O)(=O)Nc3ccccn3)cc2)cc(C)c1Cl", "relative growth in counter assay": 7.79}
{"smiles": "CCN(CC)C(=O)CN1CCC(c2cccc(Nc3nc(C)c(C)s3)n2)CC1", "relative growth in counter assay": 3.37}
{"smiles": "Cc1cnc(Nc2cccc(C3CN(C(=O)C4CCOC4)CCO3)n2)s1", "note": "(stereo not given)", "relative growth in counter assay": -17.1}
{"smiles": "O=S(=O)(Cc1ccccc1)Nc1ccc(S(=O)(=O)Nc2ncccn2)cc1", "relative growth in counter assay": 5.8}
{"smiles": "CC(C)N(C(=O)CN1CCC(Cc2cccc(Nc3nccs3)n2)CC1)C1CCCCC1", "relative growth in counter assay": -2.01}
{"smiles": "Cc1cc(C)nc(NS(=O)(=O)c2ccc(NC(=O)c3ccccc3OC(C)C)cc2)n1", "relative growth in counter assay": -1.73}
{"smiles": "COC1CCCC(C(=O)N2CCOC(c3cccc(Nc4ncc(C)s4)n3)C2)C1", "note": "(stereo not given)", "relative growth in counter assay": -9.41}
{"smiles": "O=C(Nc1ccc(S(=O)(=O)Nc2ncccn2)cc1)c1ccc(N2C(=O)c3ccccc3C2=O)cc1", "relative growth in counter assay": 0.46}
{"smiles": "Cc1nc(Nc2cccc(C3CCCN3C(=O)c3c(C)oc4c3CCCC4)n2)sc1C", "note": "(stereo not given)", "relative growth in counter assay": -6.74}
{"smiles": "Cc1cc(C)nc(NS(=O)(=O)c2ccc(NC(=O)C(C)Oc3c(C)cccc3C)cc2)n1", "note": "(stereo not given)", "relative growth in counter assay": 2.87}
{"smiles": "Cc1cnc(Nc2cccc(C3CN(C(=O)CN4CCc5ccccc5C4)CCO3)n2)s1", "note": "(stereo not given)", "relative growth in counter assay": 2.21}
{"smiles": "Cc1cnc(Nc2cccc(C3(C(=O)NCCO)CCN(C(=O)C4CCCCC4)CC3)n2)s1", "relative growth in counter assay": -16.1}
{"smiles": "CCOc1cc(C(=O)Nc2ccc(S(=O)(=O)Nc3ncccn3)cc2)cc(OCC)c1OCC", "relative growth in counter assay": -4.37}
{"smiles": "COc1ccc(Cl)c2c1[nH]c1nc(SCC(=O)Nc3ccc(F)cc3)nnc12", "relative growth in counter assay": -5.08}
{"smiles": "Cc1cc(C)cc(OCC(=O)Nc2ccc(S(=O)(=O)Nc3nc(C)cc(C)n3)cc2)c1", "relative growth in counter assay": -0.94}
{"smiles": "Cc1ccc2[nH]c3nc(SCC(=O)Nc4ccc(Cl)cc4)nnc3c2c1", "relative growth in counter assay": -6.1}
{"smiles": "Cc1cnc(Nc2cccc(C3CN(C(=O)C4CCCC(C)C4)CCO3)n2)s1", "note": "(stereo not given)", "relative growth in counter assay": -12.6}
{"smiles": "CCC(CC)C(=O)N1CCOC(c2cccc(Nc3ncc(C)s3)n2)C1", "note": "(stereo not given)", "relative growth in counter assay": -22}
{"smiles": "Cc1cnc(Nc2cccc(CC3CCN(C(=O)c4cccc(Cl)c4F)CC3)n2)s1", "relative growth in counter assay": -16.3}
{"smiles": "COc1cc(NS(=O)(=O)c2ccc(NC(=O)c3ccccc3C)cc2)nc(OC)n1", "relative growth in counter assay": 2.06}
{"smiles": "CC(=O)Nc1ccc(S(=O)(=O)Nc2nccc(/C=C/c3ccc(Cl)cc3)n2)cc1", "relative growth in counter assay": 4.3}
{"smiles": "Cc1cnc(Nc2cccc(C3CN(C(=O)CN4CCN(C)CC4)CCO3)n2)s1", "note": "(stereo not given)", "relative growth in counter assay": 0.33}
{"smiles": "O=C(Nc1ccc(S(=O)(=O)Nc2ccccn2)cc1)c1ccccc1F", "relative growth in counter assay": 0.76}
{"smiles": "Cc1csc(Nc2cccc(C3CCN(C(=O)CN(C)C)CC3)n2)n1", "relative growth in counter assay": 17.4}
{"smiles": "Cc1cccc2c1[nH]c1nc(SCC(=O)Nc3ccc(Cl)cc3)nnc12", "relative growth in counter assay": -3.09}
{"smiles": "CCCc1cnc(Nc2cccc(C3CCN(C(=O)CN)CC3)n2)s1", "relative growth in counter assay": -27}
{"smiles": "COc1nccnc1NS(=O)(=O)c1ccc(NC(=S)NC(=O)c2ccc(F)c(F)c2)cc1", "relative growth in counter assay": -1.83}
{"smiles": "Cc1cnc(Nc2cccc(C3CCN(CC(=O)N(C)C4CCCCC4)CC3)n2)s1", "relative growth in counter assay": -15.6}
{"smiles": "Cc1cc(C)nc(NS(=O)(=O)c2ccc(NC(=O)CCCN3C(=O)c4ccccc4C3=O)cc2)n1", "relative growth in counter assay": 10.7}
{"smiles": "CS(=O)(=O)Nc1ccc(S(=O)(=O)Nc2ncccn2)cc1", "relative growth in counter assay": 3.46}
{"smiles": "COc1cc(NS(=O)(=O)c2ccc(Nc3nc(-c4ccc(F)cc4F)cs3)cc2)nc(OC)n1", "relative growth in counter assay": 4.68}
{"smiles": "COc1cc(NS(=O)(=O)c2ccc(Nc3nc(-c4c(C)nc5cc(C)ccn45)cs3)cc2)nc(OC)n1", "relative growth in counter assay": -10.6}
{"smiles": "O=C(C1CCCCC1)N1CCOC(c2cccc(Nc3ncc(Cc4ccccc4)s3)n2)C1", "note": "(stereo not given)", "relative growth in counter assay": 14.4}
{"smiles": "Cc1cc(C)c2[nH]c3nc(SCC(=O)Nc4ccc(C)c(Cl)c4)nnc3c2c1", "relative growth in counter assay": -7.39}
{"smiles": "Cc1ccccc1N1C(=O)c2ccc(Oc3cccc(N)c3)cc2C1=O", "relative growth in counter assay": -8.47}
{"smiles": "Cc1ccc(OCC(=O)Nc2ccc(S(=O)(=O)Nc3nc(C)cc(C)n3)cc2)cc1", "relative growth in counter assay": 3.18}
{"smiles": "COc1cc(NS(=O)(=O)c2ccc(NC(=O)c3ccccc3C(=O)O)cc2)nc(OC)n1", "relative growth in counter assay": 1.08}
